These results are taken from the supplement of paper PMC7238544.

Structures can show the parent of a compound that is named as a salt. ± gives the standard deviation of the averaged measurements. The list shows a part of the results.

Common to all, as to details: priming compound concentration 100 µM
The test system of assay [1] is hAMSC donor 1. Nature of the assay: Hoechst total cell count ratio vs vehicle control; higher = more cells (less toxicity).
The subject of assay [2] is hAMSC donor 2. The description is as above.
Assay [3] deals with hAMSC donor 1. Nature of the assay: transgenic luciferase activity (RLU/mg protein) fold change vs vehicle control (ratio); higher = more transgene expression.
In assay [4] the test system is hAMSC donor 2. The assay is described as above.
Assay [5] has as its system hAMSC donor 1. Nature of the assay: transfection efficiency (EGFP+ cells / Hoechst count) fold change vs vehicle control (ratio); hAMSC are human adipose-derived mesenchymal stem cells given an EGFP-luciferase plasmid by lipofection; higher = enhanced transfection.
The test system of assay [6] is hAMSC donor 2. The description is as above.
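Throughout, for Hoechst total cell count ratio vs vehicle control: compound added 30 min before Lipofectamine 3000 lipoplex delivery, triplicate-well means expressed against DMSO vehicle control wells of the same 96-well plate.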
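Throughout, for transfection efficiency (EGFP+ cells / Hoechst count) fold change vs vehicle control: compounds added 30 min before Lipofectamine 3000 lipoplex transfection, triplicate means relative to DMSO vehicle wells on the same plate, luciferase RLU normalized to BCA total protein.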
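Throughout, for transgenic luciferase activity (RLU/mg protein) fold change vs vehicle control: compounds in DMSO added 30 min before Lipofectamine 3000 transfection of pEGFP-Luc in 96-well plates, values are means of triplicate wells over DMSO vehicle wells on the same plate.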

Turning to `COCCCOc1ccnc(C[S+]([O-])c2nc3ccccc3[nH]2)c1C` (centres undefined) [Rabeprazole], the “Hoechst total cell count ratio” value stood at 1.22 ± 0.73 in assay [1] and 1.15 ± 0.23 in assay [2]. The transgenic luciferase activity in assay [3] was 3.15 ± 3.6; in assay [4] it was 1.18 ± 0.42. In addition, the transfection efficiency in assay [5] stood at 1.01 ± 0.25; in assay [6], 0.646 ± 0.12.
Turning to `NNC(=O)c1ccncc1` [Isoniazid], the entries for the “Hoechst total cell count ratio” value in assay [1] and in assay [2] were 1.3 ± 0.14 and 1.44 ± 0.08, respectively. For the same compound, the transgenic luciferase activity was 1.38 ± 0.31 in assay [3] and 0.67 ± 0.1 in assay [4]. The results for the transfection efficiency in assay [5] and in assay [6] were 1.02 ± 0.14 and 1.24 ± 0.22, respectively.
On to `CC1(C)S[C@@H]2[C@H](/N=C/N3CCCCCC3)C(=O)N2[C@H]1C(=O)O` [Mecillinam], for which the “Hoechst total cell count ratio” value in assay [1] came out at 1.13 ± 0.13; in assay [2] it was 0.992 ± 0.18. The values for the transgenic luciferase activity in assay [3] and in assay [4] were 0.867 ± 0.22 and 0.859 ± 0.24, respectively. Also, the transfection efficiency in assay [5] amounted to 0.965 ± 0.45; in assay [6] it was 1.12 ± 0.066.
In the case of `Nc1nc(Cl)nc2c1ncn2[C@@H]1O[C@H](CO)[C@@H](O)[C@H]1O` [2-Chloroadenosine], the “Hoechst total cell count ratio” value in assay [1] turned out to be 1.23 ± 0.12; in assay [2], 1.36 ± 0.065. The transgenic luciferase activity in assay [3] is 0.635 ± 0.14; in assay [4] it was 0.684 ± 0.22. The transfection efficiency in assay [5] worked out at 0.771 ± 0.045; in assay [6] it was 0.73 ± 0.017.
On to `CCCCc1nc(Cl)c(CO)n1Cc1ccc(-c2ccccc2-c2nnn[nH]2)cc1` [Losartan potassium], for which the “Hoechst total cell count ratio” value turned out to be 1.03 ± 0.057 in assay [1] and 1.16 ± 0.13 in assay [2]. Further, the transgenic luciferase activity in assay [3] was determined as 3.01 ± 1.1; in assay [4] it was 0.923 ± 0.12. Further, the results for the transfection efficiency in assay [5] and in assay [6] were 1.54 ± 0.24 and 1.11 ± 0.14, respectively.
In the case of `C[C@H]1O[C@H](O[C@H]2[C@H](O)[C@@H](O)[C@@H](O[C@H]3[C@H](O)[C@@H](O)C(O)O[C@@H]3CO)O[C@@H]2CO)[C@H](O)[C@@H](O)[C@@H]1N[C@H]1C=C(CO)[C@@H](O)[C@H](O)[C@H]1O` (some centres undefined) [Acarbose], the entries for the “Hoechst total cell count ratio” value in assay [1] and in assay [2] were 1.09 ± 0.026 and 1.29 ± 0.22, respectively. Further, the transgenic luciferase activity in assay [3] was found to be 0.794 ± 0.18; in assay [4] it was 0.763 ± 0.24. Also, the transfection efficiency in assay [5] came out at 1.15 ± 0.29; in assay [6] it was 0.898 ± 0.14.
For `O=C1c2c(O)ccc(O)c2C(=O)c2c(NCCNCCO)ccc(NCCNCCO)c21` [Mitoxantrone hydrochloride], the “Hoechst total cell count ratio” value in assay [1] turned out to be 0.0957 ± 0.017; in assay [2] it was 0.011 ± 0.012. In addition, the values for the transgenic luciferase activity in assay [3] and in assay [4] were 0.000674 ± 0.00056 and 0.000303 ± 0.00013, respectively. Further, the transfection efficiency in assay [5] was found to be 0.446 ± 0.53; in assay [6] it was 0.
Take `CCCCc1oc2ccccc2c1C(=O)c1cc(I)c(OCCN(CC)CC)c(I)c1` [Amiodarone hydrochloride]: the figures for the “Hoechst total cell count ratio” value in assay [1] and in assay [2] were 0.922 ± 0.067 and 1.15 ± 0.25, respectively. Moreover, the results for the transgenic luciferase activity in assay [3] and in assay [4] were 1.75 ± 1.4 and 0.404 ± 0.084, respectively. For the same compound, the figures for the transfection efficiency in assay [5] and in assay [6] were 0.484 ± 0.082 and 0.344 ± 0.1, respectively.
For `CC(C)Oc1ccc2c(=O)c(-c3ccccc3)coc2c1` [Ipriflavone], the entries for the “Hoechst total cell count ratio” value in assay [1] and in assay [2] were 1.2 ± 0.03 and 1.37 ± 0.17, respectively. Besides, the figures for the transgenic luciferase activity in assay [3] and in assay [4] were 3.04 ± 0.35 and 0.963 ± 0.084, respectively. The transfection efficiency in assay [5] is 1.74 ± 0.15; in assay [6], 1.77 ± 0.13.
For the compound `CC(C)(C(=O)c1cccnc1)c1cccnc1` [Metyrapone], the “Hoechst total cell count ratio” value was determined as 1.13 ± 0.14 in assay [1] and 1.22 ± 0.081 in assay [2]. The transgenic luciferase activity in assay [3] was determined as 0.59 ± 0.022; in assay [4] it was 1.42 ± 0.18. In addition, the transfection efficiency amounted to 0.695 ± 0.14 in assay [5] and 1.03 ± 0.083 in assay [6].
`C[C@H]1[C@H](OC(=O)CCC(=O)O)O[C@@H]2O[C@@]3(C)CC[C@H]4[C@H](C)CC[C@@H]1[C@@]24OO3` [Artesunate]: the “Hoechst total cell count ratio” value in assay [1] came out at 1.21 ± 0.11; in assay [2] it was 1.76 ± 0.067. Besides, the figures for the transgenic luciferase activity in assay [3] and in assay [4] were 1.19 ± 0.99 and 0.585 ± 0.15, respectively. For the same compound, the figures for the transfection efficiency in assay [5] and in assay [6] were 1.12 ± 0.31 and 0.551 ± 0.074, respectively.
Take `CC(=O)CCCCn1c(=O)c2c(ncn2C)n(C)c1=O` [Pentoxifylline]: the “Hoechst total cell count ratio” value in assay [1] was determined as 1.07 ± 0.16; in assay [2], 0.963 ± 0.099. Further, the results for the transgenic luciferase activity in assay [3] and in assay [4] were 0.682 ± 0.35 and 0.896 ± 0.52, respectively. Also, the transfection efficiency in assay [5] turned out to be 1.26 ± 0.16; in assay [6] it was 1.11 ± 0.31.
As to `OCCN1CCN(CCCN2c3ccccc3Sc3ccc(C(F)(F)F)cc32)CC1` [Fluphenazine dihydrochloride], the “Hoechst total cell count ratio” value worked out at 0.0753 ± 0.048 in assay [1] and 0.0733 ± 0.033 in assay [2]. In addition, the transgenic luciferase activity was found to be 0.028 ± 0.021 in assay [3] and 0.000491 ± 5.8e-05 in assay [4]. In addition, the results for the transfection efficiency in assay [5] and in assay [6] were 1.45 ± 1.5 and 0.0415 ± 0.072, respectively.
Consider `c1ccc(CC2=NCCN2)cc1` [Priscoline hydrochloride], for which the “Hoechst total cell count ratio” value in assay [1] is 0.935 ± 0.13; in assay [2], 1.31 ± 0.094. Further, the transgenic luciferase activity in assay [3] stood at 0.854 ± 0.57; in assay [4] it was 0.663 ± 0.063. Also, the values for the transfection efficiency in assay [5] and in assay [6] were 0.868 ± 0.032 and 0.756 ± 0.1, respectively.
Consider `CC(=O)OCC(=O)[C@@]1(O)CC[C@H]2[C@@H]3C[C@H](C)C4=CC(=O)C=C[C@]4(C)[C@H]3[C@@H](O)C[C@@]21C` [Methylprednisolone acetate], for which the “Hoechst total cell count ratio” value in assay [1] is 1.16 ± 0.22; in assay [2], 1.48 ± 0.47. The transgenic luciferase activity in assay [3] was determined as 4.8 ± 1.2; in assay [4], 2.29 ± 0.51. Further, the transfection efficiency came to 1.7 ± 0.19 in assay [5] and 1.27 ± 0.12 in assay [6].
`CCN1CCC[C@H]1CNC(=O)c1c(O)c(Cl)cc(Cl)c1OC` [Raclopride]: the “Hoechst total cell count ratio” value turned out to be 1.32 ± 0.051 in assay [1] and 0.9893 ± 0.0093 in assay [2]. The values for the transgenic luciferase activity in assay [3] and in assay [4] were 0.857 ± 0.71 and 0.673 ± 0.26, respectively. The results for the transfection efficiency in assay [5] and in assay [6] were 0.765 ± 0.11 and 0.879 ± 0.14, respectively.
`OCCOCCN1CCN(C(c2ccccc2)c2ccc(Cl)cc2)CC1` (centres undefined) [Hydroxyzine pamoate]: the “Hoechst total cell count ratio” value in assay [1] stood at 1.02 ± 0.12; in assay [2], 1.24 ± 0.15. Moreover, the transgenic luciferase activity is 0.415 ± 0.2 in assay [3] and 0.909 ± 0.067 in assay [4]. For the same compound, the values for the transfection efficiency in assay [5] and in assay [6] were 0.67 ± 0.12 and 0.683 ± 0.13, respectively.
For the compound `O=C1CN2Cc3c(ccc(Cl)c3Cl)N=C2N1` [Anagrelide hydrochloride], the “Hoechst total cell count ratio” value is 2.05 ± 0.15 in assay [1] and 0.916 ± 0.07 in assay [2]. Besides, the transgenic luciferase activity worked out at 1.26 ± 0.53 in assay [3] and 0.903 ± 0.11 in assay [4]. Further, the transfection efficiency in assay [5] amounted to 1.49 ± 0.83; in assay [6] it was 2.83 ± 0.62.
In the case of `CNS(=O)(=O)Cc1ccc2[nH]cc(CCN(C)C)c2c1` [Sumatriptan succinate], the “Hoechst total cell count ratio” value in assay [1] is 1.36 ± 0.2; in assay [2] it was 1.22 ± 0.14. For the same compound, the figures for the transgenic luciferase activity in assay [3] and in assay [4] were 1.65 ± 0.24 and 1.07 ± 0.032, respectively. Further, the figures for the transfection efficiency in assay [5] and in assay [6] were 1.73 ± 0.56 and 0.908 ± 0.13, respectively.
